# Data as given in the supplement of paper PMC8728848.
# This is one part of the list.
# B1: Mg1lysM (Mycosphaerella graminicola) (protein)
# chain: QRNPITITPQFDCGATNSQQYVARSGDTLTKIAQEIYHDVVGVCDIARANNLADPNRIDAGTPYTIPINCQTYDRNSCL
# What was measured:
# Experiment in all cases: glycan array binding signal (z-score within array); higher = stronger binding
# Settings in all cases: glycan notation: IUPAC condensed, linker removed
# [1] = biological target: Fuc(a1-2)Gal6S(b1-3)GlcNAc
# How it was run: (§1)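 The binding signal is a Z-score computed within each array. Data were drawn from 3228 arrays in the Consortium for Functional Glycomics database, restricted to those with a known protein sequence. Scores were averaged over arrays of the same protein sequence at different concentrations or buffers, and over linkers, and negative values can be taken as non-binding.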
# [2] = biological target: Fuc(a1-2)Gal6S(b1-3)GlcNAc6S
# How it was run: as §1
# Fuc(a1-2)Gal6S(b1-4)Glc = biological target: Fuc(a1-2)Gal6S(b1-4)Glc
# How it was run: as §1
# [3] = biological target: Fuc(a1-2)Gal6S(b1-4)Glc6S
# How it was run: as §1
# Fuc(a1-2)[Gal(a1-3)]Gal = biological target: Fuc(a1-2)[Gal(a1-3)]Gal
# How it was run: as §1
# [4] = biological target: Fuc(a1-2)[Gal(a1-3)]Gal(b1-3)GalNAc
# How it was run: as §1
# [5] = biological target: Fuc(a1-2)[Gal(a1-3)]Gal(b1-3)GalNAc(b1-3)Gal(a1-4)Gal(b1-4)Glc
# How it was run: as §1
# [6] = biological target: Fuc(a1-2)[Gal(a1-3)]Gal(b1-3)GlcNAc
# How it was run: as §1
# [7] = biological target: Fuc(a1-2)[Gal(a1-3)]Gal(b1-3)GlcNAc(b1-2)Man(a1-3)[Fuc(a1-2)[Gal(a1-3)]Gal(b1-3)GlcNAc(b1-2)Man(a1-6)]Man(b1-4)GlcNAc(b1-4)GlcNAc
# How it was run: as §1
# [8] = biological target: Fuc(a1-2)[Gal(a1-3)]Gal(b1-3)GlcNAc(b1-2)Man(a1-3)[Fuc(a1-2)[Gal(a1-3)]Gal(b1-3)GlcNAc(b1-2)Man(a1-6)]Man(b1-4)GlcNAc(b1-4)[Fuc(a1-6)]GlcNAc
# How it was run: as §1
# [9] = biological target: Fuc(a1-2)[Gal(a1-3)]Gal(b1-3)GlcNAc(b1-3)GalNAc
# How it was run: as §1
# [10] = biological target: Fuc(a1-2)[Gal(a1-3)]Gal(b1-3)GlcNAc(b1-6)GalNAc
# How it was run: as §1
# [11] = biological target: Fuc(a1-2)[Gal(a1-3)]Gal(b1-4)Glc
# How it was run: as §1
# [12] = biological target: Fuc(a1-2)[Gal(a1-3)]Gal(b1-4)GlcNAc
# How it was run: as §1
# [13] = biological target: Fuc(a1-2)[Gal(a1-3)]Gal(b1-4)GlcNAc(b1-2)Man
# How it was run: as §1
# [14] = biological target: Fuc(a1-2)[Gal(a1-3)]Gal(b1-4)GlcNAc(b1-2)Man(a1-3)[Fuc(a1-2)[Gal(a1-3)]Gal(b1-4)GlcNAc(b1-2)Man(a1-6)]Man(b1-4)GlcNAc(b1-4)GlcNAc
# How it was run: as §1
# [15] = biological target: Fuc(a1-2)[Gal(a1-3)]Gal(b1-4)GlcNAc(b1-2)Man(a1-3)[Fuc(a1-2)[Gal(a1-3)]Gal(b1-4)GlcNAc(b1-2)Man(a1-6)]Man(b1-4)GlcNAc(b1-4)[Fuc(a1-6)]GlcNAc
# How it was run: as §1
# [16] = biological target: Fuc(a1-2)[Gal(a1-3)]Gal(b1-4)GlcNAc(b1-3)GalNAc
# How it was run: as §1
# [17] = biological target: Fuc(a1-2)[Gal(a1-3)]Gal(b1-4)GlcNAc(b1-3)[Fuc(a1-2)[Gal(a1-3)]Gal(b1-4)GlcNAc(b1-6)]GalNAc
# How it was run: as §1
# [18] = biological target: Fuc(a1-2)[Gal(a1-3)]Gal(b1-4)GlcNAc(b1-6)GalNAc
# How it was run: as §1
# [19] = biological target: Fuc(a1-2)[Gal(a1-3)]Gal(b1-4)[Fuc(a1-3)]Glc
# How it was run: as §1
# [20] = biological target: Fuc(a1-2)[Gal(a1-3)]Gal(b1-4)[Fuc(a1-3)]GlcNAc
# How it was run: as §1
# [21] = biological target: Fuc(a1-2)[Gal(a1-3)]Gal(b1-4)[Fuc(a1-3)]GlcNAc(b1-3)GalNAc
# How it was run: as §1
# [22] = biological target: Fuc(a1-2)[Gal(a1-4)]Gal(b1-4)GlcNAc
# How it was run: as §1
# [23] = biological target: Fuc(a1-2)[GalNAc(a1-3)]Gal
# How it was run: as §1
# [24] = biological target: Fuc(a1-2)[GalNAc(a1-3)]Gal(b1-3)GalNAc(a1-3)[Fuc(a1-2)]Gal(b1-4)GlcNAc
# How it was run: as §1
# [25] = biological target: Fuc(a1-2)[GalNAc(a1-3)]Gal(b1-3)GalNAc(b1-3)Gal(a1-4)Gal(b1-4)Glc
# How it was run: as §1
# [26] = biological target: Fuc(a1-2)[GalNAc(a1-3)]Gal(b1-3)GlcNAc
# How it was run: as §1
# [27] = biological target: Fuc(a1-2)[GalNAc(a1-3)]Gal(b1-3)GlcNAc(b1-2)Man(a1-3)[Fuc(a1-2)[GalNAc(a1-3)]Gal(b1-3)GlcNAc(b1-2)Man(a1-6)]Man(b1-4)GlcNAc(b1-4)GlcNAc
# How it was run: as §1
# [28] = biological target: Fuc(a1-2)[GalNAc(a1-3)]Gal(b1-3)GlcNAc(b1-2)Man(a1-3)[Fuc(a1-2)[GalNAc(a1-3)]Gal(b1-3)GlcNAc(b1-2)Man(a1-6)]Man(b1-4)GlcNAc(b1-4)[Fuc(a1-6)]GlcNAc
# How it was run: as §1
# [29] = biological target: Fuc(a1-2)[GalNAc(a1-3)]Gal(b1-3)GlcNAc(b1-3)GalNAc
# How it was run: as §1
# [30] = biological target: Fuc(a1-2)[GalNAc(a1-3)]Gal(b1-3)GlcNAc(b1-6)GalNAc
# How it was run: as §1
# [31] = biological target: Fuc(a1-2)[GalNAc(a1-3)]Gal(b1-4)Glc
# How it was run: as §1
# [32] = biological target: Fuc(a1-2)[GalNAc(a1-3)]Gal(b1-4)GlcNAc
# How it was run: as §1
# [33] = biological target: Fuc(a1-2)[GalNAc(a1-3)]Gal(b1-4)GlcNAc(b1-2)Man
# How it was run: as §1
# [34] = biological target: Fuc(a1-2)[GalNAc(a1-3)]Gal(b1-4)GlcNAc(b1-2)Man(a1-3)[Fuc(a1-2)[GalNAc(a1-3)]Gal(b1-4)GlcNAc(b1-2)Man(a1-6)]Man(b1-4)GlcNAc(b1-4)GlcNAc
# How it was run: as §1
# [35] = biological target: Fuc(a1-2)[GalNAc(a1-3)]Gal(b1-4)GlcNAc(b1-2)Man(a1-3)[Fuc(a1-2)[GalNAc(a1-3)]Gal(b1-4)GlcNAc(b1-2)Man(a1-6)]Man(b1-4)GlcNAc(b1-4)[Fuc(a1-6)]GlcNAc
# How it was run: as §1
# [36] = biological target: Fuc(a1-2)[GalNAc(a1-3)]Gal(b1-4)GlcNAc(b1-3)Gal(b1-4)GlcNAc
# How it was run: as §1
# [37] = biological target: Fuc(a1-2)[GalNAc(a1-3)]Gal(b1-4)GlcNAc(b1-3)Gal(b1-4)GlcNAc(b1-3)Gal(b1-4)GlcNAc
# How it was run: as §1
# [38] = biological target: Fuc(a1-2)[GalNAc(a1-3)]Gal(b1-4)GlcNAc(b1-3)GalNAc
# How it was run: as §1
# [39] = biological target: Fuc(a1-2)[GalNAc(a1-3)]Gal(b1-4)GlcNAc(b1-3)[Fuc(a1-2)[GalNAc(a1-3)]Gal(b1-4)GlcNAc(b1-6)]GalNAc
# How it was run: as §1
# [40] = biological target: Fuc(a1-2)[GalNAc(a1-3)]Gal(b1-4)GlcNAc(b1-6)GalNAc
# How it was run: as §1
# [41] = biological target: Fuc(a1-2)[GalNAc(a1-3)]Gal(b1-4)[Fuc(a1-3)]GlcNAc
# How it was run: as §1
# [42] = biological target: Fuc(a1-2)[GalNAc(a1-3)]Gal(b1-4)[Fuc(a1-3)]GlcNAc(b1-3)GalNAc
# How it was run: as §1
# [43] = biological target: Fuc(a1-2)[GalNAc(a1-4)]Gal(b1-4)GlcNAc
# How it was run: as §1
binder,measurement,setting,value
B1,glycan array binding signal (z-score),[1],-0.075
same,glycan array binding signal (z-score),[2],-0.083
same,glycan array binding signal (z-score),Fuc(a1-2)Gal6S(b1-4)Glc,-0.066
same,glycan array binding signal (z-score),[3],-0.069
same,glycan array binding signal (z-score),Fuc(a1-2)[Gal(a1-3)]Gal,-0.062
same,glycan array binding signal (z-score),[4],-0.054
same,glycan array binding signal (z-score),[5],-0.072
same,glycan array binding signal (z-score),[6],-0.072
same,glycan array binding signal (z-score),[7],-0.042
same,glycan array binding signal (z-score),[8],-0.074
same,glycan array binding signal (z-score),[9],-0.068
same,glycan array binding signal (z-score),[10],-0.087
same,glycan array binding signal (z-score),[11],-0.074
same,glycan array binding signal (z-score),[12],-0.086
same,glycan array binding signal (z-score),[13],-0.081
same,glycan array binding signal (z-score),[14],-0.065
same,glycan array binding signal (z-score),[15],-0.101
same,glycan array binding signal (z-score),[16],-0.052
same,glycan array binding signal (z-score),[17],-0.055
same,glycan array binding signal (z-score),[18],-0.057
same,glycan array binding signal (z-score),[19],-0.078
same,glycan array binding signal (z-score),[20],-0.081
same,glycan array binding signal (z-score),[21],-0.075
same,glycan array binding signal (z-score),[22],-0.058
same,glycan array binding signal (z-score),[23],-0.058
same,glycan array binding signal (z-score),[24],-0.078
same,glycan array binding signal (z-score),[25],-0.082
same,glycan array binding signal (z-score),[26],-0.058
same,glycan array binding signal (z-score),[27],-0.082
same,glycan array binding signal (z-score),[28],-0.052
same,glycan array binding signal (z-score),[29],-0.061
same,glycan array binding signal (z-score),[30],-0.092
same,glycan array binding signal (z-score),[31],-0.078
same,glycan array binding signal (z-score),[32],-0.076
same,glycan array binding signal (z-score),[33],-0.074
same,glycan array binding signal (z-score),[34],-0.056
same,glycan array binding signal (z-score),[35],-0.079
same,glycan array binding signal (z-score),[36],-0.066
same,glycan array binding signal (z-score),[37],-0.077
same,glycan array binding signal (z-score),[38],-0.077
same,glycan array binding signal (z-score),[39],-0.091
same,glycan array binding signal (z-score),[40],-0.071
same,glycan array binding signal (z-score),[41],-0.067
same,glycan array binding signal (z-score),[42],-0.083
same,glycan array binding signal (z-score),[43],-0.066
